Measured values: article PMC4336329 (PLoS ONE, 2015)
About 14,000 (4.5%) of roughly 310,000 compounds showed an effect of 50% or more. Effects have a minus sign here. Some of the results follow.

target: human ether-à-go-go-related gene (hERG) potassium channel (human, UniProt Q12809); test: primary screen, population patch clamp on CHO cells stably expressing hERG
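Also: peak tail current of the secondary pulse compared with the same well before compound.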

human ether-à-go-go-related gene (hERG) potassium channel, sequence (Q12809 whole entry, looked up): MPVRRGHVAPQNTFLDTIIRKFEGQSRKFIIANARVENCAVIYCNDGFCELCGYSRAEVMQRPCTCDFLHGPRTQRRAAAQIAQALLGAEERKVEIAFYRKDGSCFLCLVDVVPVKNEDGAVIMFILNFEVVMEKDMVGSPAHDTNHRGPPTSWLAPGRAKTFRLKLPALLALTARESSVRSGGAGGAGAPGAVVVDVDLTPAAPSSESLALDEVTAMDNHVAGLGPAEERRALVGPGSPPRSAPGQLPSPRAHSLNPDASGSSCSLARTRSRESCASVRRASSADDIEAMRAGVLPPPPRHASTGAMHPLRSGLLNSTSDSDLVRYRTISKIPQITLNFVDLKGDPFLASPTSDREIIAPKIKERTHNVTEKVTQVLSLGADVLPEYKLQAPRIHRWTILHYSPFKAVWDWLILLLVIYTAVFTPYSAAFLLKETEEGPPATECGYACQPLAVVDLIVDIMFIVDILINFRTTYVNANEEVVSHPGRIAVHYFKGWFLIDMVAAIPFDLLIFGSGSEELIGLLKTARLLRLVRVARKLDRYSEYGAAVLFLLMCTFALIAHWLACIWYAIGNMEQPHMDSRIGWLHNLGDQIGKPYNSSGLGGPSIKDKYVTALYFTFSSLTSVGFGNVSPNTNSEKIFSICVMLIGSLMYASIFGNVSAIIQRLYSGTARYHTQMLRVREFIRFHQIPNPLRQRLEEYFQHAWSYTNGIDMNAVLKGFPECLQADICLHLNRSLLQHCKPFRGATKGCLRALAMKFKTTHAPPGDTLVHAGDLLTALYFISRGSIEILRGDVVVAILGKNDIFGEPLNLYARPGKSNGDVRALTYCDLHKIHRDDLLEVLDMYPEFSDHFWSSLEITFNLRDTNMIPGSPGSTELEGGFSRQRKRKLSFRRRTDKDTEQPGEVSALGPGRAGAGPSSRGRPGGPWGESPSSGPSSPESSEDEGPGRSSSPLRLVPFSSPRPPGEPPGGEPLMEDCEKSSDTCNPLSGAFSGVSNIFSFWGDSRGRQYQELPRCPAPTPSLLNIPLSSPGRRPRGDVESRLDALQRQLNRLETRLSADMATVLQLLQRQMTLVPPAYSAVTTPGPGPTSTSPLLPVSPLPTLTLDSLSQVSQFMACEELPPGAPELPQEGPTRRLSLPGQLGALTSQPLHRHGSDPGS

Row | Structure (SMILES) | hERG current change (%, negative = inhibition) at 10uM
1 | CC1(C)CC(c2nc(-c3ccc([N+](=O)[O-])cc3)cs2)CCO1 (centres unmarked) | -29.8%
2 | CNC(=O)c1c(NC(=O)c2ccc(S(=O)(=O)N3CCCCC3)cc2)sc2c1CCN(C(C)C)C2 | -65.8%
3 | O=C(Nc1ccccc1F)c1ccc(Cn2cc(Cl)cn2)cc1 | 2.19%
4 | CC(C)OCC1CO1 (centres unmarked) | 6.9%
5 | COc1ccc(N2C(=O)CC(N3CCC(n4c(=O)[nH]c5ccccc54)CC3)C2=O)cc1 (centres unmarked) | -19.9%
6 | CN1CCN(C(=O)c2cnn(-c3ccccc3)c2NC(=O)c2cccs2)CC1 | -29.2%
7 | OC[C@@H](O)[C@H](O)C(/C=N/Nc1ccccc1)=N\Nc1ccccc1 | 20.1%
8 | COc1ccc(C(=O)Nc2ccc(CN3CCOCC3)cc2)cc1Br | -35.1%
9 | Cc1ccccc1OCC1Cn2c(nc3c2c(=O)n(C)c(=O)n3C)O1 (centres unmarked) | 14.2%
10 | Cc1ccc(CC2CC(=O)N(c3cc(C)on3)C2=O)cc1 (centres unmarked) | 11.1%
11 | CCOc1ccc2[nH]c(C)c(CN3CCCCCC3)c(=O)c2c1 | -5.41%
12 | COC(=O)c1c(-c2cccnc2)csc1NC(=O)c1ccc2c(c1)OCO2 | 10.8%
13 | COc1ccc(S(=O)(=O)N2CCCCC2)cc1NC(=O)CCNC(=O)c1ccccc1Cl | -11%
14 | Cc1cc(C)c(NC(=O)Cn2c(=O)c3cccn3c3ccccc32)c(C)c1 | 1.88%
15 | Cc1ccc2nc(SCC(=O)NC3CCCCC3)nc(=O)n2c1 | -14.5%
16 | CC1CCN(C(=S)c2ccccc2O)CC1 | 5.57%
17 | COc1ccccc1NC(=O)C1CCN(c2ncnc3c2nc2n3CCCCC2)CC1 | -6.75%
18 | COC(=O)C1=C(C)N=C2SC(C)C(=O)N2C1c1cccc(F)c1 (centres unmarked) | 12.2%
19 | O=C(COC(=O)c1ccc(Cl)cc1O)Nc1cccnc1Cl | 6.61%
20 | CC(C)(C)N(Cc1ccccc1)C(=O)CN1C(=O)c2ccccc2C1=O | 16.5%
21 | COc1ccc(CN2CCN(c3ccccc3OC)CC2)c(OC)c1.O=C(O)C(=O)O | -64.2%
22 | CO/N=C\CC(=O)Nc1ccc(Cl)cc1Cl | 10.7%

Row | Structure (SMILES) | hERG current change (%, negative = inhibition) at 10uM
23 | O=C(Cn1cnc2ccccc2c1=O)Nc1ccc(N2CCOCC2)cc1 | 10.3%
24 | COc1cccc2oc3cc(C#CC4(O)CCCCC4)ccc3c(=O)c12 | 14.3%
25 | CCN(CCCn1c(SCC#N)nc2ccccc2c1=O)c1ccccc1 | -11.9%
26 | COc1ccccc1-c1noc(COC(=O)c2ccc(Br)o2)n1 | -36.3%
27 | O=C(CSc1n[nH]c(=O)n1-c1ccccc1)N1CCOCC1 | 11.3%
28 | O=S(=O)(Nc1nccs1)c1ccc(NCc2cc(Br)cc(Br)c2O)cc1 | 8.1%
29 | Cc1ccn2cc(C(=O)Nc3nnc(C)s3)nc2c1 | 2.8%
30 | CCN(CC(=O)Nc1ccccc1C(F)(F)F)C(=O)CCS(=O)(=O)c1ccc(Cl)cc1 | -6.4%
31 | CCn1cc(C(=O)OCc2ccc(F)cc2)c(=O)c2ccc(C)nc21 | -22.8%
32 | O=[N+]([O-])c1ccc(CNc2cccc(Cl)c2)s1 | -28.3%
33 | CN(C)C=Nc1nonc1-c1ccc(Cl)cc1 | 12.2%
34 | COc1cc(NC(=O)CN2CC(c3ccccc3)CC2=O)cc(OC)c1 (centres unmarked) | 10.7%
35 | CCc1nnc(NC(=O)CSc2nnc(COc3ccccc3)n2Cc2ccccc2)s1 | 5.71%
36 | NCCc1ccccc1 | 17.5%
37 | Cc1ccc(SCC(=O)OC(C)C(=O)NC2CCCCC2C)c(C)c1 (centres unmarked) | 15.9%
38 | CCN(CC)CCCNC(=S)N1CCN(c2nc(-c3ccc(F)cc3)cs2)CC1 | -29.6%
39 | CC(=O)OCC1OC(OCc2cn(C[C@H]3CC[C@H](Cn4cc(COC5OC(COC(C)=O)C(OC(C)=O)C(OC(C)=O)C5OC(C)=O)nn4)O3)nn2)C(OC(C)=O)C(OC(C)=O)C1OC(C)=O (some centres unmarked) | 7.83%
40 | CCN(CC(=O)Nc1ccc(NC(C)=O)cc1)C(=O)c1ccc(C(=O)c2ccccc2)cc1 | 7.69%
41 | Clc1ccc(-n2ncc3c(NCCCn4ccnc4)ncnc32)cc1 | -26.1%
42 | CC(C)c1ccc(NC(=O)C2CCN(S(C)(=O)=O)CC2)cc1 | -1.47%
43 | COc1ccc(OC)c(S(=O)(=O)Nc2cc(C)on2)c1 | 17.2%
44 | CC(C)(C)c1ccc(OCC(=O)Nc2ccncc2)c(Br)c1 | 0.734%

Row | Structure (SMILES) | hERG current change (%, negative = inhibition) at 10uM
45 | CC(=O)c1ccc(NC(=O)Nc2ccc3c(c2)nc(C)n3C)cc1 | 9.94%
46 | CC(CNc1ccc([N+](=O)[O-])c2cccnc12)Nc1c([N+](=O)[O-])cc(C(F)(F)F)cc1[N+](=O)[O-] (centres unmarked) | 6.69%
47 | Cn1c(NC(=O)c2cccs2)c(-c2cccs2)c(=O)c2ccccc21 | 2.52%
48 | CCn1c(SCc2ccc(C(=O)O)cc2)nnc1-c1ccc(Cl)cc1 | 35.2%
49 | COc1cc(S(=O)(=O)N2CCOCC2)ccc1NC(=O)COc1ccc(N(C)S(=O)(=O)c2ccc(C)cc2)cc1 | -18.2%
50 | CCN(CC)S(=O)(=O)c1ccc2c(c1)c(=O)c(C(=O)N1CCN(c3ccccc3)CC1)cn2C | -28.7%
51 | Cc1[nH]c2ccc(-c3nnc(SCC(=O)N4CCCc5ccccc54)o3)cc2c1C | 11.1%
52 | Cc1cc(=O)oc2cc(OCC(=O)Nc3c(Cl)cccc3C(F)(F)F)ccc12 | 6.04%
53 | COc1ccc(C(=O)C2CCCN(Cc3ccc(C#CCCO)cc3)C2)c(OC)c1 (centres unmarked) | -51.2%
54 | Nc1nonc1-n1nnc(C(=O)N/N=C/c2cccc(F)c2)c1-c1ccccc1 | -41.6%
55 | CC(C)Oc1ccc(/C=N/NC(=O)C2CCCN2S(=O)(=O)c2ccc(Cl)cc2)cc1 (centres unmarked) | -8.96%
56 | Cc1ccc(OCC(O)Cn2c(=N)n(CCN3CCOCC3)c3ccccc32)cc1.Cl (centres unmarked) | -43.6%
57 | O=C1CC(NS(=O)(=O)c2cccs2)CN1c1ccc(Cl)cc1 (centres unmarked) | -14.1%
58 | O=C(Cc1ccccc1)N1CCC(c2nc(-c3ccc(F)cc3)no2)CC1 | -50.6%
59 | O=C1CC(=O)Nc2cc(S(=O)(=O)Nc3cccc(C(F)(F)F)c3)ccc2N1 | 5.79%
60 | CCOc1ccc(-n2c(O)c(/C=N/c3ccnn3Cc3ccncc3)c3ccccc3c2=O)cc1 | 22.8%
61 | CCCSc1nc(N)cc(=O)[nH]1 | 4.03%
62 | CCN1/C(=C2\OC(=S)N(C)C2=O)C=Cc2ccccc21 | 10.3%
63 | O=C(CCNC(=O)c1ccccc1Cl)NCCC1=CCCCC1 | 13.4%
64 | CCOC(=O)C1=C(C)NC(C)=C(C(=O)OCC)C1C(=O)OCC(=O)N1CCc2ccccc21 | -1.82%
65 | C[C@@H](C(=O)NCCc1ccc(F)cc1)N1C(=O)N2CCc3c([nH]c4ccccc34)[C@@]2(C)C1=O | -18.9%
66 | CC1CC(C#N)N(N(C)C)C1=C(C#N)C#N (centres unmarked) | 11.3%

Row | Structure (SMILES) | hERG current change (%, negative = inhibition) at 10uM
67 | CCN1C(=O)/C(=C\c2ccco2)C(C(=O)OC)=C1C | 10.4%
68 | OC1CCCN(Cc2c3ccccc3cc3ccccc23)C1 (centres unmarked) | -1.54%
69 | CCOc1cccc(C(=O)Nc2ccccc2N2CCN(C(=O)C(C)C)CC2)c1 | -70%
70 | CC1CCCC/C1=N\NC(=S)Nc1ccccc1 (centres unmarked) | -14.7%
71 | Cc1cc(C)cc(N(CCC#N)C(=O)COC(=O)c2ccc(OCc3c(C)noc3C)cc2)c1 | -7.01%
72 | O=C(N/N=C\c1ccc(F)cc1)c1ccc(F)cc1 | 6.28%
73 | CCc1nnc(SCC(=O)Nc2ccc(NC(C)=O)cc2)n1-n1cccc1 | 15.8%
74 | Cc1cccc(-c2noc(CN(C)S(=O)(=O)c3cc(Cl)ccc3Cl)n2)c1 | -2.87%
75 | CC(C)NC(=O)COc1ccc(S(=O)(=O)N2CCOCC2)cc1 | 14.6%
76 | O=C(C1CCN(S(=O)(=O)c2ccc3ccccc3c2)CC1)N1CCN(c2ncccn2)CC1 | -29.2%
77 | O=C(COc1cc(O)c2c(=O)cc(-c3ccccc3)oc2c1)c1ccccc1 | 10.3%
78 | CC(C)Cn1c(-c2csc3ccccc23)n[nH]c1=S | 2.01%
79 | CCOC(=O)CN(C(=O)CSc1nnc(CNc2ccc(F)cc2)n1CC)c1ccc(F)cc1 | -42.9%
80 | CCOC(=O)CSc1nnc2c(n1)C1(C)CCC2C1(C)C (centres unmarked) | -19.4%
81 | O=C(O)CCC(=O)NC(c1ccccc1)c1ccccc1 | 20.3%
82 | Fc1ccc(COc2cccc(-c3n[nH]c(=S)o3)c2)cc1 | 5.69%
83 | CN(C)S(=O)(=O)c1ccc2c(c1)c(=O)c(C(=O)N1CCOCC1)cn2C | 14.8%
84 | COc1ccc(C)c(S(=O)(=O)Nc2ccc(OCC(=O)O)cc2)c1 | 24.6%
85 | CCOC(=O)N1CCC(NC(=O)C2CCCN(S(=O)(=O)c3ccc4c(c3)oc(=O)n4C)C2)CC1 (centres unmarked) | 5.14%
86 | O=C(COc1ccccc1[N+](=O)[O-])Nc1ccc(N2CCN(C(=O)c3cccs3)CC2)cc1 | -15.1%
